The list shows a part of the results.

The chains are these.
T1: UNK ZnF1-3 (human, UniProt Q9C0B0 31-174)
T1 sequence: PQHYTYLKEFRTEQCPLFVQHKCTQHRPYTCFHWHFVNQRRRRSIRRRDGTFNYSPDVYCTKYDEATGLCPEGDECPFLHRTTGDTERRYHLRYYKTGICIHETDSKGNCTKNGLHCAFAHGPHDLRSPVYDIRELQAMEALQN

B1: chr11:33163239:33163240:-_ENSG00000176102_ENST00000323959|hu_hu|motif|central (ssRNA)
RNA: GGGAGUUCUACAGUCCGACGAUCUCUGCCAGAACUGGGGAACUGGGCAACAAGGCGUUCAUAAGUCUUCCGUGCUUUGUCGGUAGGUUGAUUCUGUGCCUCUCGAAUGAGAAUGCUCCAAGCAUCAAGGUCAUAUGGAUUCUCCAACAGAGGAUUGAGCAUCA
B2: 107883963_107888198_179_CDS_ENSMUSG00000027889_ENSMUST00000078912|mouse|control|control (ssRNA)
RNA: GGGAGUUCUACAGUCCGACGAUCAAGCGGGAAGUGCUUGAGGCAAGGGGCGUUGCCUGGCAGGGAUCGGGCAGACUGUAGCGGAGAGGCCCCCAGACCGCUUCGAGCUUCUGGAGCGGCAGCGGAAGCUUGCAGGCCGGCCCGCAACAGAGGAUUGAGCAUCA
B3: chr11:22899103:22899104:+_ENSMUSG00000007739_ENSMUST00000173867|mus_mus|FALSE|FALSE (ssRNA)
RNA: GGGAGUUCUACAGUCCGACGAUCUAAAAUAUAGGCUCUCUCCUCUCGAAGCACUCGAUCCAUCUGGGCAUAGUCAGAUACUACUAUUUGAUUAUCCAUAUCUGUUUUAGGAGCAGAUAAGCAAAACUGAAUAAGCCCAAUCUUCAACAGAGGAUUGAGCAUCA
B4: chr7:10979719:10979720:-_ENSG00000189043_ENST00000339600|hu_hu|motif|central (ssRNA)
RNA: GGGAGUUCUACAGUCCGACGAUCUGAUCUGGCGGAGCAUGUUUGCGGCAGAGGUCUCCGACUGGAAAGGAGAGAACCGACCGGGCCACCAGGCCCUAAGCUAAAAAUUAUCUGCAAUGAGACACUACGGACUUCCAAAGUCACCAACAGAGGAUUGAGCAUCA
B5: chr20:42825305:42825306:-_ENSG00000132823_ENST00000255174|hu_mus|FALSE|FALSE (ssRNA)
RNA: GGGAGUUCUACAGUCCGACGAUCUUAAACCAAAGACAGUUUAAAUGAGUCUCAUAAGCUCUACUAUUGAUGGGCUGGCAUCUACAGCAUGACAAGUGUUCAAUUCAGUUACAAAUGCACAUUUGAGUUUCUUGCUGCCACAUCCAACAGAGGAUUGAGCAUCA
B6: chr7:136912400:136912401:-_ENSG00000105894_ENST00000348225|hu_hu|FALSE|FALSE (ssRNA)
RNA: GGGAGUUCUACAGUCCGACGAUCUUUUGUUUAGUAUAUAUUUUUCUCAAUUGGGAAAAAAAUCUAGGUGAAAAAAAUUACCUAACAAGAGAAGUAGUUUACAUAGUCAUAACAUUUAAAUUGCUGCCCAAAAAAUGUAAAAAACAACAGAGGAUUGAGCAUCA

The target of the test is T1, UNK ZnF1-3. The test can be described thus: nsRBNS (natural sequence RNA bind-n-seq); RBNS binding buffer (assumed for nsRBNS): 25 mM Tris pH 7.5, 150 mM KCl, 3 mM MgCl2, 0.01% Triton X-100, 500 ug/ml BSA, 20 U/ml SUPERase-In, 4 C; UNK is unkempt and MSI1 is Musashi-1; names of the RNAs are library labels; protein concentration not given here; high values mean tight binding.
B1 yielded a binding signal of 0.787 enrichment R.

Take B2: the binding signal was found to be 1.22 enrichment R.

Take B3: the binding signal is 1.01 enrichment R.

B4: the binding signal was found to be 1.38 enrichment R.

B5 gave a binding signal of 0.769 enrichment R.

On to B6, for which the binding signal was found to be 1.18 enrichment R.

Source of the values: paper PMC12136788.
